{"source": "PubChem BioAssay AID463173", "about": "(ICCB-Longwood Screening Facility, Harvard Medical School, 2010)", "note": "Screen size: about 52,000 compounds; about 4,300 (8.3%) were called active. Rule as the data show it: active = survival mostly below about 52% (no sharp cut-off); inactive = mostly above about 56%. The list shows a part of the results."}
{"system": "DeltatarO mutant", "test": "growth inhibition of S. aureus wild type versus tarO mutant, primary screen, teichoic acid synthesis inhibitors, RN4220, OD600 (AID 463173)", "conditions": "OD600, 18 h, stronger effect = lower value, screened at 18.75 µg/mL (by protocol)"}
{"compound": "O=C(c1ccc2c(c1)CCN2S(=O)(=O)c1ccc(Cl)cc1)N1CCN(c2ccc(F)cc2)CC1", "survival": "inactive: 74%"}
{"compound": "C/C(=N\\NC(=O)CNc1ccccc1)c1ccccc1", "survival": "inactive: 85%"}
{"compound": "CCOC(=O)CNC(=O)N1[C@H](c2cccs2)[C@@H](C)C(=O)[C@@H](C)[C@@H]1c1cccs1", "survival": "active: 55%"}
{"compound": "COc1cc(NC(=O)c2nc3nc(C)cc(C(F)F)n3n2)c(OC)cc1Cl", "survival": "inactive: 87%"}
{"compound": "CCOc1ccc(N2CC(NC(=O)C3CCCCC3)CC2=O)cc1", "note": "(configuration not stated)", "survival": "inactive: 75%"}
{"compound": "Cc1ccc(CNC(=O)c2ccc(CN3CC(=O)N4CCCCC4C3=O)cc2)cc1", "note": "(configuration not stated)", "survival": "inactive: 60%"}
{"compound": "COc1ccc(Nc2c(-c3ccc(C)o3)nc3cc(C)ccn23)cc1", "survival": "inactive: 75%"}
{"compound": "Cc1cc(C)cc(NC(=O)Cn2cc(C(=O)c3cccs3)c3ccccc32)c1", "survival": "inactive: 60%"}
{"compound": "Cc1ccc2oc(-c3ccc(C)c(NC(=O)/C=C/c4ccc(Cl)cc4)c3)nc2c1", "survival": "inactive: 90%"}
{"compound": "Cc1ccc2[nH]c3c(=O)n(CC(=O)N(CCN(C)C)Cc4ccccc4)ncc3c2c1", "survival": "inactive: 97%"}
{"compound": "CC(=O)N1CCC(N(Cc2ccco2)C(=O)Nc2ccc(C)c(Cl)c2)CC1", "survival": "inactive: 128%"}
{"compound": "COc1ccc(OC)c(NC(=O)CSc2nnc(CNc3ccc(C)cc3C)n2CC2CCCO2)c1", "note": "(configuration not stated)", "survival": "inactive: 100%"}
{"compound": "O=C(CCCCCn1c(=O)c2sccc2n(Cc2ccc(Cl)cc2)c1=O)NCc1ccc2c(c1)OCO2", "survival": "inactive: 64%"}
{"compound": "Cc1ccc(S(=O)(=O)N(CC(=O)NCCSc2ccc(Cl)cc2)c2ccccc2C)cc1", "survival": "inactive: 58%"}
{"compound": "COc1ccc(Cl)cc1C(=O)Nc1nnc2n1CCS2", "survival": "inactive: 75%"}
{"compound": "Cc1ccc(NC(=O)C2CCN(c3nnc(C)c4c(C)n(-c5ccccc5)nc34)CC2)c(Cl)c1", "survival": "inactive: 79%"}
{"compound": "CC(C)CCNC(=O)Cn1c(-c2cccs2)cc2cc(F)ccc21", "survival": "inactive: 94%"}
{"compound": "Cc1cc(Br)ccc1NC(=O)c1sc2nc3n(c(=O)c2c1C)CCCC3", "survival": "inactive: 74%"}
{"compound": "CCCCOc1ccc(Cn2c(=O)oc3ccc(C)cc32)cc1OC", "survival": "active: 36%"}
{"compound": "CCc1nnc(NC(=O)c2nc(SCc3ccccc3F)ncc2Cl)s1", "survival": "active: 31%"}
{"compound": "COc1ccc(S(=O)(=O)N2CCN(c3cccc(C)c3C)CC2)c2ccccc12", "survival": "inactive: 152%"}
{"compound": "COc1ccc2c(c1)c(=O)c(C(=O)c1ccc(F)cc1)cn2CC(=O)Nc1ccc2c(c1)OCO2", "survival": "inactive: 94%"}
{"compound": "S=C1NC2=C(CCCC2)C2(CCCCC2)N1", "survival": "inactive: 71%"}
{"compound": "Cc1cccc(N2CCn3c2nc2c3c(=O)n(C/C=C/c3ccccc3)c(=O)n2C)c1", "survival": "inactive: 75%"}
{"compound": "CC(C)c1ccc(NC(=O)N2c3ccccc3Sc3ccccc32)cc1", "survival": "active: 6%"}
{"compound": "C=Cc1ccc(Cn2c(=O)n(-c3cccc(Cl)c3)c(=O)c3c4c(sc32)CN(C(C)=O)CC4)cc1", "survival": "inactive: 65%"}
{"compound": "COCCCNC(=O)CCn1c(=O)c2ccccc2n(CC(=O)Nc2cc(Cl)ccc2OC)c1=O", "survival": "inactive: 96%"}
{"compound": "CCN(Cc1ccccc1)Cc1c(O)ccc2oc(C)c(C(=O)Nc3ccc(C)cc3C)c12", "survival": "active: 33%"}
{"compound": "O=C(/C=C/c1ccccc1Cl)Nc1nc(-c2cccs2)ns1", "survival": "inactive: 68%"}
{"compound": "CC(Oc1ccccc1)C(=O)Nc1c[nH]c(=O)[nH]c1=O", "note": "(configuration not stated)", "survival": "inactive: 85%"}
{"compound": "COC1CCC(C(=O)Nc2nc(-c3ccc4c(c3)CCN4S(C)(=O)=O)cs2)CC1", "note": "(configuration not stated)", "survival": "inactive: 90%"}
{"compound": "COc1ccc(NC(=O)N2CCN(S(=O)(=O)c3ccc4c(ccn4C)c3)CC2)c(OC)c1", "survival": "inactive: 95%"}
{"compound": "COc1cccc(CNC(=O)C(C)n2c(=O)cc(-c3ccccc3)c3c(C)nn(C)c32)c1", "note": "(configuration not stated)", "survival": "inactive: 84%"}
{"compound": "Cc1nc2ccn(Cc3ccco3)c(=O)c2cc1C(=O)N1CCN(c2ccc(F)cc2)CC1", "survival": "inactive: 135%"}
{"compound": "CCc1nnc(NC(=O)c2c(O)c3ccccc3n(C)c2=O)s1", "survival": "active: -1%"}
{"compound": "CC(C)c1ccc(N2C(=O)CSC23C(=O)N(Cc2ccccc2)c2ccccc23)cc1", "note": "(configuration not stated)", "survival": "inactive: 69%"}
{"compound": "Cc1ccc(NC(=O)Cn2c(=O)n(Cc3nc(C)no3)c(=O)c3cc4c(cc32)OCO4)cc1", "survival": "inactive: 91%"}
{"compound": "CCCC(CCC)C(=O)NC1CC(=O)N(c2ccc3c(c2)OCCO3)C1", "note": "(configuration not stated)", "survival": "inactive: 105%"}
{"compound": "O=C(Nc1nnc(S(=O)(=O)N2CCc3ccccc32)s1)c1cccc(Cl)c1", "survival": "active: 1%"}
{"compound": "CCOC(=O)c1cccc(N2C(=O)C3C(C(=O)NC4CC4)C4(C)C=CC3(O4)C2C(=O)NC(C)(C)C)c1", "note": "(configuration not stated)", "survival": "inactive: 92%"}
{"compound": "COc1ccc(NC(=O)C2CCCN(c3nnc(C)c4c(C)n(-c5ccccc5)nc34)C2)cc1Cl", "note": "(configuration not stated)", "survival": "inactive: 102%"}
{"compound": "CCOc1ccc(CC(=O)Nc2c(C(=O)c3ccccc3)oc3ccc(OC)cc23)cc1OCC", "survival": "inactive: 69%"}
{"compound": "CCc1ccccc1NC(=O)Cn1c(=O)n(Cc2ccc(OC)cc2)c(=O)c2oc3ccccc3c21", "survival": "inactive: 70%"}
{"compound": "CN(Cc1ccccc1)C(=O)CSc1nc(-c2ccc(F)cc2)cc(C(F)(F)F)n1", "survival": "active: 31%"}
{"compound": "O=C(COc1ccc(Cl)cc1)Nc1ccccc1OCc1cc(=O)n2ccccc2n1", "survival": "inactive: 86%"}
{"compound": "CCc1ccc(NC(=O)C(CC)n2c(=O)c(-c3ccccc3NC(C)=O)nc3ccccc32)cc1", "note": "(configuration not stated)", "survival": "inactive: 65%"}
{"compound": "C#CCSc1cccc2cccnc12", "survival": "inactive: 108%"}
{"compound": "CCN(CC)c1ccc(NC(=O)C2CCN(S(=O)(=O)c3cnc[nH]3)CC2)c(C)c1", "survival": "inactive: 97%"}
{"compound": "CCOC(=O)c1c(C)c(-c2ccccc2)n(CC(=O)NC(CC)Cc2ccccc2)c1C", "note": "(configuration not stated)", "survival": "inactive: 108%"}
{"compound": "O=C(CSc1nc(-c2ccc(F)cc2)[nH]c1-c1ccc(F)cc1)Nc1ccc2c(c1)OCCO2", "survival": "inactive: 76%"}
{"compound": "Nc1nonc1-n1nnc(CO)c1CO", "survival": "inactive: 63%"}
{"compound": "Cc1ccc(C)c(N2CCN(C(=O)c3cnn(-c4ccccc4Cl)c3C3CCN(C(=O)OC(C)(C)C)CC3)CC2)c1", "survival": "inactive: 80%"}
{"compound": "O=C1OC(C(=O)Nc2cc(C(F)(F)F)ccc2Cl)Cc2ccccc21", "note": "(configuration not stated)", "survival": "active: 56%"}
{"compound": "COc1ccc(Cc2nc3ccc(C(=O)NCc4ccccc4Cl)cc3o2)cc1", "survival": "inactive: 66%"}
{"compound": "Cc1ccc(NC(=O)CS(=O)CC(=O)Nc2ccc3c(c2)CCC3)cc1", "note": "(configuration not stated)", "survival": "inactive: 85%"}
{"compound": "Cc1cccc(OCC(=O)Nc2cccc3cccnc23)c1C", "survival": "active: 60%"}
{"compound": "CCOC(=O)c1c(NC(=O)c2ccccc2OCC)sc2c1CCC(CC)C2", "note": "(configuration not stated)", "survival": "active: -2%"}
{"compound": "COc1ccc(N2CCN(C(=O)CCc3c(C)nc4cc(-c5ccc(OC)cc5OC)nn4c3C)CC2)cc1", "survival": "inactive: 104%"}
{"compound": "CN(C)S(=O)(=O)c1ccc(C(=O)NCCSc2c(-c3ccc(Cl)cc3)[nH]c3ccccc23)cc1", "survival": "inactive: 67%"}
{"compound": "CCCOc1ccc(C2C(=O)N(C3CCCCCC3)CC(=O)N2CCC)cc1OC", "note": "(configuration not stated)", "survival": "active: -4%"}
{"compound": "COc1cccc(C(=O)Nc2ccc3oc(-c4cccc5c(Br)cccc45)nc3c2)c1", "survival": "inactive: 59%"}
{"compound": "COc1ccccc1N1CCN(C(=O)c2cnn(-c3ccc(F)cc3F)c2C2CCNCC2)CC1", "survival": "active: 32%"}
{"compound": "COc1ccc(S(=O)(=O)NCC(c2ccc(N(C)C)cc2)N2CCc3ccccc32)cc1OC", "note": "(configuration not stated)", "survival": "inactive: 95%"}
{"compound": "CCOC(=O)c1ccccc1NC(=O)Cn1c2ncccc2c(=O)n1-c1ccccc1", "survival": "inactive: 98%"}
{"compound": "COc1ccc(C(=O)NCC23C=CC(O2)C2C(=O)N(c4ccccc4C)C(=O)C23)cc1", "note": "(configuration not stated)", "survival": "inactive: 96%"}
{"compound": "CC(CN=CC1=C(O)CC(C)(C)CC1=O)N=CC1=C(O)CC(C)(C)CC1=O", "note": "(configuration not stated)", "survival": "inactive: 101%"}
{"compound": "CCN(Cc1ccccc1)C(=O)CN1C(=O)COc2ccc(S(=O)(=O)N3CCCCCC3)cc21", "survival": "inactive: 95%"}
{"compound": "CCn1cc2nc(SCc3ccccc3F)n(Cc3ccc(C)cc3)c(=O)c2n1", "survival": "inactive: 73%"}
{"compound": "Cc1ccc(NC(=O)CCS(=O)(=O)c2cccc3nsnc23)c(C)c1", "survival": "inactive: 61%"}
{"compound": "CCOc1ccc(NC(=O)CCS(=O)(=O)c2ccc3c(c2)n(C)c(=O)c(=O)n3C)cc1", "survival": "inactive: 87%"}
{"compound": "Cc1ccc2cccc(NC(=O)C(C)(C)Oc3ccc(Br)cc3)c2n1", "survival": "inactive: 63%"}
{"compound": "CCCS(=O)(=O)Nc1cc2c(cc1NCc1ccccc1)n(C)c(=O)n2C", "survival": "inactive: 82%"}
{"compound": "CCOc1ccc(NC(=O)CSc2nc(-c3ccc(F)cc3)cc(C(F)(F)F)c2C#N)cc1", "survival": "inactive: 124%"}
{"compound": "Cc1cccc(C)c1NC(=O)Cn1nc(C)c2sc3ccccc3c2c1=O", "survival": "inactive: 99%"}
{"compound": "COc1ccc(-c2cn3c(n2)sc2cc(C(=O)Nc4cc(Cl)ccc4C)ccc23)cc1", "survival": "inactive: 57%"}
{"compound": "CCc1ccc(C(=O)Nc2ccc3nn(-c4ccc(C)c(Cl)c4)nc3c2)cc1", "survival": "inactive: 101%"}
{"compound": "O=C(NC(CO)C(=O)O)c1ccncc1", "note": "(configuration not stated)", "survival": "inactive: 94%"}
{"compound": "Cc1ccc(CN2CCc3nc(SCC(=O)Nc4cccc(C)c4C)[nH]c(=O)c3C2)cc1", "survival": "inactive: 82%"}
{"compound": "CCOC(=O)CSc1nc2ccc(NC(=O)c3ccccc3)cc2s1", "survival": "inactive: 77%"}
{"compound": "COc1cc(-c2nnc(SCCOc3ccc(C)c(Cl)c3)o2)cc(OC)c1OC", "survival": "inactive: 115%"}
{"compound": "COc1cccc(C(=O)c2cn(CC(=O)Nc3cccc(C)c3C)c3nc(C)ccc3c2=O)c1", "survival": "inactive: 67%"}
{"compound": "CCOCCCn1c(SCC(=O)Nc2ccc(OC)cc2OC)nc2ccccc2c1=O", "survival": "inactive: 89%"}
{"compound": "Cc1c(NC(=O)c2cc(=O)c3cc(Cl)ccc3o2)c(=O)n(-c2ccccc2)n1C", "survival": "active: 43%"}
{"compound": "Cn1cnc2c(=O)oc3ccc(S(=O)(=O)N4CCN(c5cccc(Cl)c5)CC4)cc3c21", "survival": "active: -5%"}
{"compound": "Cc1cccc(-c2nc(Cn3c(SCc4cccc(C(F)(F)F)c4)nc4ccncc43)c(C)o2)c1", "survival": "inactive: 79%"}
{"compound": "Fc1ccc2c(c1)NC(c1ccncc1)=NC(c1cccs1)=N2", "survival": "active: 30%"}
{"compound": "COc1ccc(N2CC(NC(=O)c3ccc(S(=O)(=O)N4CCCCC4)cc3)CC2=O)cc1OC", "note": "(configuration not stated)", "survival": "inactive: 113%"}
